Laboratory results: patent US20230312722A1
No constants are given. Whether binding was seen depends on the method and setting. Some results given as binding are weak or reduced against the parent protein; the word gives no strength. For part of these data: Where a sequence is shown, tags or fusion partners need not be part of it. Values belong to the binder of their own block, whether it stands above or below them.

Chains of the proteins cited; added tags and fusions are not shown. Lines headed by an entry give the natural chain unless they say otherwise; changes in a name come on top. Residues count along the entry.
UniProt P42081, residues 26-247: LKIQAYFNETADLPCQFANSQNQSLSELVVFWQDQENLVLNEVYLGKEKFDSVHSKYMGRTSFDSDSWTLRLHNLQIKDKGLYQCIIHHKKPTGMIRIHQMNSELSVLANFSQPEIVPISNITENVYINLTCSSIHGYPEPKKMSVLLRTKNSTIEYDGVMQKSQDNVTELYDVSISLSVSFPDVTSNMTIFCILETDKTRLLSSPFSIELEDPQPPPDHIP
UniProt Q9H7M9, residues 33-194: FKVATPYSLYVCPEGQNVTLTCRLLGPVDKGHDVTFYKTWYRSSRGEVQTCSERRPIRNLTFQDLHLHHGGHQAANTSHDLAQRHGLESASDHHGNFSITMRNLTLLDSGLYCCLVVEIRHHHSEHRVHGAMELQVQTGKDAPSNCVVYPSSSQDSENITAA
UniProt Q9NZQ7: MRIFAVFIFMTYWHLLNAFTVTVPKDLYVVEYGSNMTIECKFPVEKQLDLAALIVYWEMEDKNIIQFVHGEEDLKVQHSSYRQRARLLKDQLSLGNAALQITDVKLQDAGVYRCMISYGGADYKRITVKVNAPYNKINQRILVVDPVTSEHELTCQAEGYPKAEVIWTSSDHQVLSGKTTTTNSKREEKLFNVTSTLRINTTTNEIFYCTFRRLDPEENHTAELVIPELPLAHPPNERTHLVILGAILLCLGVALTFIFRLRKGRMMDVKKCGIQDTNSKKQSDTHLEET

Tests used:
[1] = molecular target: Human B7-2/CD86 Protein, Fc Tag (Acro CD6-H5257) (human) (UniProt P42081); experiment: ELISA, plate coated with 1 µg/mL B7 family protein
[2] = molecular target: T1, CD275/ICOS ligand Protein, Human, Recombinant (Fc Tag) (Sino Biological 11559-H02H) (human) (UniProt O75144); experiment: ELISA, plate coated with 1 µg/mL B7 family protein
T1 sequence (looked up): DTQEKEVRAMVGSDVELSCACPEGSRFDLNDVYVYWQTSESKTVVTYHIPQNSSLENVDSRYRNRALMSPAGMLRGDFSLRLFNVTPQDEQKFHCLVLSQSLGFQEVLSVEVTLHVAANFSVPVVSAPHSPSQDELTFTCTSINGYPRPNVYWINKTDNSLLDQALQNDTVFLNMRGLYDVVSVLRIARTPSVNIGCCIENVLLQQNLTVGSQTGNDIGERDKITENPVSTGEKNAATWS

[3] = molecular target: Human B7-1/CD80 Protein, Fc Tag (Acro B71-H5259) (human) (UniProt P33681); experiment: ELISA, plate coated with 1 µg/mL B7 family protein
[4] = molecular target: T2, Human B7-DC/PD-L2/CD273 Protein, Recombinant (Fc Tag) (Sino Biological H10292-H02H) (human) (UniProt Q9BQ51); experiment: ELISA, plate coated with 1 µg/mL B7 family protein
T2 sequence (looked up): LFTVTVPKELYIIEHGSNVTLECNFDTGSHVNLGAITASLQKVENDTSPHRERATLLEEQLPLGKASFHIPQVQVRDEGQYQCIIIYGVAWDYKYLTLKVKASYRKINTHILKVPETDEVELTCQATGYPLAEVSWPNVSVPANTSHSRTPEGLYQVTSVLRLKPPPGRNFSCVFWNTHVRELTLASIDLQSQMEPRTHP

[5] = molecular target: T3, B7-H6/NCR3LG1 Protein, Human, Recombinant (Fc Tag) (Sino Biological 16140-H02H) (human) (UniProt Q68D85); experiment: ELISA, plate coated with 1 µg/mL B7 family protein
T3 sequence (looked up): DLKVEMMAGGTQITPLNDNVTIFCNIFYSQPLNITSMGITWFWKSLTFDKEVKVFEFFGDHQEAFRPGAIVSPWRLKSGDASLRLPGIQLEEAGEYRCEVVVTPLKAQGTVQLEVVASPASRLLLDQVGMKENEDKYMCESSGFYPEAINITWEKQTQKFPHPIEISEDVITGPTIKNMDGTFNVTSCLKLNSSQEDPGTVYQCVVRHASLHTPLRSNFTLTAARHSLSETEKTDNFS

[6] = molecular target: Recombinant human VISTA/B7H5/PD-1H Fc Chimera (R&D 7126-B7-050) (human) (UniProt Q9H7M9); experiment: ELISA, plate coated with 1 µg/mL B7 family protein
[7] = molecular target: T4, B7-H3/CD276 Protein, Human, Recombinant (ECD, Fc Tag) (Sino Biological 11188-H02H) (human) (UniProt Q5ZPR3); experiment: ELISA, plate coated with 1 µg/mL B7 family protein
T4 sequence (looked up): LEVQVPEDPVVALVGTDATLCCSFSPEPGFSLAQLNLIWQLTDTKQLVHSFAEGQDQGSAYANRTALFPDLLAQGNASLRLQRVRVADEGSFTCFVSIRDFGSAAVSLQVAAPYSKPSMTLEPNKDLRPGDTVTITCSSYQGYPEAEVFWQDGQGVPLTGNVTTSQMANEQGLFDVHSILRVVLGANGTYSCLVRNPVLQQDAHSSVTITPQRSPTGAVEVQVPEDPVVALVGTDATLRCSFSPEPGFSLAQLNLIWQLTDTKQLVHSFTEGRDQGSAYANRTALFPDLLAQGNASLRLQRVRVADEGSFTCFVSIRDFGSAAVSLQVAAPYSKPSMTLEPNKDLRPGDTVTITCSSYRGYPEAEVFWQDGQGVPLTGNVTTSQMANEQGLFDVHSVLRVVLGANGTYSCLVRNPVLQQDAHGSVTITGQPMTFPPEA

[8] = molecular target: Human PD-L1/B7-H1 Protein, His Tag (Acro PD1-H5229) (human) (UniProt Q9NZQ7); experiment: ELISA, plate coated with 1 µg/mL B7 family protein
[9] = molecular target: T5, Recombinant human B7H7/HHLA2 Fc Chimera (R&D 8084-B7-050) (human) (UniProt Q9UM44); experiment: ELISA, plate coated with 1 µg/mL B7 family protein
T5 sequence (looked up): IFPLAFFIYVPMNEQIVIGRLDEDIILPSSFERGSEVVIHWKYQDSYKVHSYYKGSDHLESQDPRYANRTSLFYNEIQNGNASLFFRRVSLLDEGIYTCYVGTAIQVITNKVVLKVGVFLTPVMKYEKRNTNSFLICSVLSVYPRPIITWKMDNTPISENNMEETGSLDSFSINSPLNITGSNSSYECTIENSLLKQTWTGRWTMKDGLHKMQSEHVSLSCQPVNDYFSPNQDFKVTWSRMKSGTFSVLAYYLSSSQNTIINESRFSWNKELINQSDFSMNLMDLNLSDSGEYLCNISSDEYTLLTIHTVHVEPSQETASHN

[10] = molecular target: B7-H4 (Acro Biosystems, #B74-H82E2) (UniProt Q7Z7D3); experiment: BLI, B7-H4 captured on SA sensor
[11] = molecular target: cynomolgus monkey B7H4 on the cell surface (cynomolgus monkey); experiment: FACS, CHOK1/cyno B7H4 cells (FIG. 3)
[12] = molecular target: T6, human B7-H4 (recombinant protein of the BLI affinity assay, Example 7.2) (human) (UniProt Q7Z7D3); experiment: BLI (Octet Red 96e)
T6 sequence (looked up): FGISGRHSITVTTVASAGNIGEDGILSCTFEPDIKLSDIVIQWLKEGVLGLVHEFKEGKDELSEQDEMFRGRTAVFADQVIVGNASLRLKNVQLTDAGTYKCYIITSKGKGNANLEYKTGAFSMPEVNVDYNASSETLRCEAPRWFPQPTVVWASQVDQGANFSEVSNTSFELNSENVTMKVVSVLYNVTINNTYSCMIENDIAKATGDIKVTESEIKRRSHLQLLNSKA

- binding [1]: no binding (tested: 10 nM)
- binding [2]: no binding (tested: 10 nM)
- binding [3]: no binding (tested: 10 nM)
- binding [4]: no binding (tested: 10 nM)
- binding [5]: no binding (tested: 10 nM)
- binding [6]: no binding (tested: 10 nM)
- binding [7]: no binding (tested: 10 nM)
- binding [8]: no binding (tested: 10 nM)
- binding [9]: no binding (tested: 10 nM)
- binding [10]: binds
B1: Control antibody 2 (PR002962) (antibody, human IgG1, kappa, V domains shown)
VH: QLQLQESGPGLVKPSETLSLTCTVSGGSIKSGSYYWGWIRQPPGKGLEWIGNIYYSGSTYYNPSLRSRVTISVDTSKNQFSLKLSSVTAADTAVYYCAREGSYPNQFDPWGQGTLVTVSS
VL: EIVMTQSPATLSVSPGERATLSCRASQSVSSNLAWYQQKPGQAPRLLIYGASTRATGIPARFSGSGSGTEFTLTISSLQSEDFAVYYCQQYHSFPFTFGGGTKVEIKR

- binding [11]: binds
B2: PR002038 (antibody, human IgG1, kappa, V domains shown)
VH: QVQLVQSGAEVKKPGSSMRVSCKASEDTFSSYAISWVRQAPGQGLEWMGGTAPIFGTTNYAQKFQGRVTITADKSTSTAYMELSSLRSEDTAVYYCARGGPYFDYWGQGTLVTVSS
VL: DIQLTQSPATLSVSPGERATLSCRASQSVSSNLAWYQQKPGQAPRLLIYGDYIRATGIPARFSGSGSGTEFTLTISSLQSEDIATYYCQQYVDLPITFGQGTRLEIKR

- binding [12]: binds
B3: PR003369 (antibody, human IgG1, kappa, V domains shown)
VH: QVQLVESGGGVVQPGRSLRLSCAASGFTFRSFGMHWVRQAPGKGLEWVAVISYDASNEYYADSVKGRFIISRDNSKDTLYLQMNSLRAGDTAVYYCAKGGALRWYFAYWGQGTLVTVSS
VL: EIVMTQSPATLSVSPGERATLSCRASQSISSNLGWYQQKPGQAPRLLIYGASTRATGIPARFSGSGSGTEFTLTISSLQSEDFAVYYCQQYRSWPPLTFGGGTKVEIKR
